Experimental data from PubChem BioAssay AID2546 (National Center for Advancing Translational Sciences (NCATS), 2010).
Among all 310,000 compounds or so, about 11,000 (3.5%) were called active. This list was built around the results that the source calls inconclusive (neither active nor inactive); the mix of calls is not that of the screen. Calls follow the shape of the dose curve; as a rule, active = well fitted inhibition curve with a large enough effect; inconclusive = small, poorly fitted or top-dose-only effect, or effect the other way; inactive = flat fitted curve, though single readings scatter. Potencies of inconclusive entries are left out as doubtful fits.

Experiment: VP16 counterscreen qHTS for inhibitors of ROR gamma transcriptional activity;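 also: Gal4-VP16 expression switched on by copper sulfate through the metallothionein promoter; nearly all actives have a fitted effect of over 50% in size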
Conditions: Drosophila S2 Gal4-VP16 UAS-luciferase, luminescence, 20 h; series mostly up to 53.6 µM
Potency is read from the fitted curve at half-maximal effect; tags tell the direction and shape of the fitted curve.

Row | Structure (SMILES) | Potency
1 | Cc1ccsc1/C=N/Nc1ccc(C(=O)O)cc1 | active: 0.224 µM
2 | CCOc1ccc(C(c2c(NC(=O)c3ccccc3)sc(C)c2C)N2CCN(CCO)CC2)cc1 (configuration not stated) | inconclusive [inhibitor, single point]
3 | OCC1(Cc2cccc(Cl)c2)CCCN(Cc2ccc3cc(F)ccc3n2)C1 (configuration not stated) | inactive
4 | COc1ccc(Br)cc1/C=N/NC(=O)CNC(=O)c1cccnc1 | inactive
5 | COc1ccc(/C=C/C(=O)NC(=S)NCCc2ccc(OC)c(OC)c2)cc1 | inconclusive [inhibitor, single point]
6 | CC(NC(=O)c1ccc([N+](=O)[O-])cc1[N+](=O)[O-])c1ccc(-c2ccccc2)cc1 (configuration not stated) | inconclusive [inhibitor, single point]
7 | COc1ccc(C(=O)/C=C2/C(=O)Nc3ccccc32)c(OC)c1 | inconclusive [inhibitor, single point]
8 | CC(=O)Oc1ccc(N(C(C)=O)S(=O)(=O)c2cccs2)c2ccccc12 | inconclusive [inhibitor, single point]
9 | Oc1ccc2oc3c(c2c1C=NCc1ccncc1)CCCC3 | inconclusive [inhibitor, single point]
10 | Cc1ccc(SCc2ccc(C(=O)Nc3cccc([N+](=O)[O-])c3)cc2)cc1 | inconclusive [inhibitor, single point]
11 | Oc1ccc2ccccc2c1/C=N/c1nc2c(s1)CCCC2 | inconclusive [inhibitor, single point]
12 | Cc1ccn2c(Nc3ccc4c(c3)OCO4)c(-c3ccccn3)nc2c1 | inconclusive [inhibitor, partial curve]
13 | O=C(O)CCCCCCCCCC(=O)c1cccs1 | active: 3.55 µM
14 | O=C(Nc1ccc(F)cc1F)c1cccc(C(=O)Nc2ccc(F)cc2F)n1 | inconclusive [inhibitor, full curve, poor fit]
15 | CCCc1cc(=O)[nH]c(SCc2nc3ccc([N+](=O)[O-])cc3[nH]2)n1 | inconclusive [inhibitor, single point]
16 | O=C(N/N=C\C=C\c1ccc2c(c1)OCO2)C1COc2cc3ccccc3cc2O1 (configuration not stated) | inconclusive [inhibitor, single point]
17 | CCOC(=O)N1CCN(Cc2nnc(-c3cccc(Br)c3)o2)CC1 | inactive
18 | COc1ccc(CNC(=O)c2nc(S(=O)(=O)Cc3ccccc3)ncc2Cl)cc1 | active: 3.55 µM
19 | CCC(OC(=O)c1cccs1)C(=O)NCc1ccc(C)cc1 (configuration not stated) | inactive
20 | CC(CNc1nc2ccc(Cl)cc2n2cnnc12)c1ccccc1 (configuration not stated) | inactive
21 | Cc1ccccc1NC(=S)N(Cc1ccccn1)Cc1ccccc1Cl | inconclusive [inhibitor, single point]
22 | Cc1cccc(NC(=S)N(CCN(C)C)C(C)c2ccccn2)c1 (configuration not stated) | inactive
23 | Cc1cccc(N2CCN(C(=O)CCCCCn3c(=S)[nH]c4ccc(N5CCOCC5)cc4c3=O)CC2)c1C | active: 11.2 µM
24 | C/C(=N\NC(=O)c1ccc(Cl)c(Cl)c1)c1ccccn1 | active: 0.0028 µM
25 | Cn1c(=O)n(CCCOc2ccc(Br)cc2)c2ccccc21 | inconclusive [inhibitor, single point]
26 | COc1ccccc1CN1C(=NC(=O)C2CCCCC2)SC2CS(=O)(=O)CC21 (configuration not stated) | inactive

Row | Structure (SMILES) | Potency
27 | Cc1ccc(SCC(=O)Nc2cccc(-c3nnc(-c4ccco4)o3)c2)cc1 | inconclusive [inhibitor, partial curve]
28 | O=[N+]([O-])c1cccc(-c2csc(CS(=O)(=O)Cc3ccco3)n2)c1 | inconclusive [activator, single point]
29 | CN(CC(=O)N1CCN(c2ccccn2)CC1)S(=O)(=O)c1ccc2ccccc2c1 | inactive
30 | Cc1cc(C(=O)N/N=C/c2ccc(C)o2)c2ccccc2n1 | inconclusive [inhibitor, partial curve]
31 | O=c1[nH]c(CSc2nc3ccccc3[nH]2)nc2c1cnn2-c1ccccc1 | inconclusive [inhibitor, partial curve]
32 | Cn1nc(-c2ccc(N3CCOCC3)c(NS(=O)(=O)c3ccc(Cl)cc3)c2)c2ccccc2c1=O | inactive
33 | CCN1CCN(CCCN(Cc2ccco2)C(=S)Nc2ccc(Cl)cc2)CC1 | inactive
34 | CC(=O)Nc1ccc(Nc2nc3ccccc3n3cnnc23)cc1 | inactive
35 | O=S(=O)(Nc1ccccc1N1CCCCC1)c1ccccc1 | inconclusive [inhibitor, single point]
36 | CCN(CC)CC(=O)Nc1sc(C)cc1C(=O)c1ccc(C)cc1 | active: 6.31 µM
37 | CC(C)(C)OC(=O)N[C@@H](Cc1ccccc1)c1nnc(S(=O)(=O)Cc2cccc(F)c2)o1 | active: 4.47 µM
38 | Cc1ccccc1-c1ocnc1C(=O)Nc1ccccc1NC(=O)c1ccccn1 | active: 7.08 µM
39 | Cc1ccc(C)c(NC(=O)c2cc(-c3cc(C)c(C)cc3O)n[nH]2)c1 | inconclusive [inhibitor, single point]
40 | CCOc1ccc(N=Nc2c(=O)[nH]n3c(C)cc(C)nc23)cc1 | inactive
41 | CCc1ccccc1 | inactive
42 | CC(C)c1ccccc1OCCNC(=O)c1cccnc1 | inconclusive [inhibitor, single point]
43 | O=C(O)C1SCCN1S(=O)(=O)c1ccc2ccccc2c1 (configuration not stated) | inconclusive [activator, single point]
44 | O=C(O)C(Cc1cc(I)c(O)c(I)c1)c1ccccc1 (configuration not stated) | inactive
45 | OC[C@@H]1[C@@H](c2ccccc2)C(c2ccc(F)cc2)=NN1c1ccccc1 | inconclusive [inhibitor, partial curve]
46 | N#Cc1c(SCC(=O)Nc2ccccc2)nsc1SCC(=O)Nc1ccccc1 | inconclusive [inhibitor, single point]
47 | CCN1CCN(c2nc(-c3ccccc3)nc3ccccc23)CC1 | inactive
48 | OCCNc1nc(-c2ccccc2)c2cc(Cl)ccc2n1 | inactive
49 | Cc1ccc(N/C=C(\C#N)S(=O)(=O)c2ccccc2)cc1 | inactive
50 | CCNC(=S)N(Cc1cc2cc(C)ccc2[nH]c1=O)C1CCCC1 | inconclusive [activator, single point]
51 | O=Cc1c(Nc2ccccc2Cl)nc2ccccn2c1=O | inconclusive [inhibitor, single point]
52 | COc1ccccc1/C=C\C=N\n1c(-c2ccc(Cl)cc2)n[nH]c1=S | inconclusive [inhibitor, full curve]

Row | Structure (SMILES) | Potency
53 | CCc1cccc(C)c1NC(=O)C1C2CCC(O2)C1C(=O)O (configuration not stated) | inactive
54 | CC1CCN(C(=O)/C(=C\c2cccs2)NC(=O)c2ccccc2)CC1 | active: 17.8 µM
55 | COc1ccc2nc(SCC(=O)/C(C#N)=C(\C)N)[nH]c2c1 | inconclusive [inhibitor, single point]
56 | COC(=O)c1ccc(-c2nc3ccc(C)cc3o2)cc1 | inconclusive [inhibitor, full curve, poor fit]
57 | COc1ccc(C(=O)C(CN2CCOCC2)c2ccccc2)cc1 (configuration not stated) | inconclusive [inhibitor, single point]
58 | O=C(/C(=N/N=C/c1ccc(O)c(O)c1O)c1ccccc1)c1ccccc1 | active: 10 µM
59 | Cc1ccsc1C(=O)OCC(=O)N1CCc2ccccc2C1 | inactive
60 | COc1ccccc1N1CCN(C(=O)/C=C/c2ccco2)CC1 | inconclusive [inhibitor, single point]
61 | COc1ccc(CNC(=O)CSc2n[nH]c(N)n2)cc1 | inactive
62 | CCOC(=O)c1c(NC(=O)CSc2nnc(-c3c[nH]c4ccccc34)n2C)sc2c1CCCC2 | inactive
63 | CCOC(=O)C1=C(C)N(c2ccc(Cl)cc2)C(=O)NC1c1cccc([N+](=O)[O-])c1 (configuration not stated) | inactive
64 | N#CC1=C2SCC(O)(c3ccccc3)N2C(=O)CC1c1cccs1 (configuration not stated) | inconclusive [inhibitor, single point]
65 | COc1ccc(NC(=O)c2ccccc2NC(=O)CSc2ccccc2)cc1 | inconclusive [inhibitor, single point]
66 | COc1cc(/C=N/Nc2ccccn2)ccc1OCC(C)C | inconclusive [activator, single point]
67 | CC(=O)Cc1nsc(Nc2ccc(Cl)cc2)n1 | inconclusive [activator, full curve, poor fit]
68 | S=C(NCCOCCOCCNC(=S)Nc1ccccc1)Nc1ccccc1 | inconclusive [inhibitor, single point]
69 | CSc1sc(C(=O)NNC(C)=O)c2c1C1(CCC2)SCCS1 | inactive
70 | CCn1c(C(c2ccccc2)c2ccccc2)n[nH]c1=S | inconclusive [inhibitor, single point]
71 | S=c1[nH]nc(COc2ccccc2)n1/N=C/c1ccco1 | inactive
72 | Cc1ccc(Cl)cc1N1CCN(C(=O)c2ccc(NC3=NC4CS(=O)(=O)CC4S3)cc2)CC1 (configuration not stated) | inactive
73 | CCOC(=S)SCC(=O)Nc1nc(-c2ccccc2)cs1 | inconclusive [inhibitor, single point]
74 | CCC(=O)c1ccc(OCc2ccc(C(=O)OC)o2)c(OC)c1 | inactive
75 | CCOc1ccc(NC(=O)c2nsc(Cl)c2Cl)cc1 | inconclusive [activator, single point]
76 | Cc1ccc2nc(C3CCCN(C(=S)Nc4cccc(C)c4C)C3)[nH]c2c1 (configuration not stated) | inconclusive [inhibitor, partial curve]
77 | Cc1cc2nc(-c3cccnc3SCC(=O)NC3CC3)[nH]c2cc1C | inconclusive [inhibitor, single point]
